The source gives no read counts; variants with many changes may rest on few reads.
B1: LINE1-mini (parent)
chain: GGCAGAGCUCAACACAGCGUGGCAAAGUGGCUGUGGCUAGACUGCC

Variants of: B1
Test: self-cleavage, relative activity (ratio to wild type); higher = more cleavage; in vitro, sequencing; the parent is a self-cleaving ribozyme

Row | Variant | self-cleavage
1 | GGCAGUGCUCAACGCGGCGUGGCAAAGUGGCUGUGGCUAGACUGCC [A6U A14G A16G] | 0.14
2 | GGCAGUGCUCAACUGACCGGGGCAAAGUGGCUGUGGCUAGACUGCC [A6U A14U C15G G17C U20G] | 0.02
3 | GGCAGUGCUCAACUCAGCGUGGGAAAGUGGCUGUGGCAAGACUGCC [A6U A14U C23G U38A] | 0.9
4 | GGCAGUGCUCAACUCAGCUUGGCAAAGUGGCUGUGGCUAGACUGCC [A6U A14U G19U] | 0.04
5 | GGCAGUGCUCAACACCGUGUGGCAAAGUGGCAGUGGCUAGACUGCC [A6U A16C C18U U32A] | 0.07
6 | GGCAGUGCUCAACACCGCGUUGCAAAGUGGCUGUGGCUAGACUGCU [A6U A16C G21U C46U] | 0.17
7 | GGCAGUGCUCAACACCGCGUGGCAAAGUGGCUUCGGCUAGACUGCC [A6U A16C G33U U34C] | 0.11
8 | GGCAGUGCUCAACACGGCGUGGCAACGUGGCUGUGGCUAGACUGCC [A6U A16G A26C] | 0.12
9 | GGCAGUGCUCAACACGGCGUGGUAAAGUGGCUGUGGCUACACUGCC [A6U A16G C23U G40C] | 0.16
10 | GGCAGUGCUCAACACGGCGUGGCAAAGUGGCUGUGGUUUGACUGCC [A6U A16G C37U A39U] | 0.2
11 | GGCAGUGCUCAACACAGCGUGGCCAAGUGGCUGUGGCUAGACAGCC [A6U A24C U43A] | 0.02
12 | GGCAGUGCUCAACACAGCGUGGCACCGUGGCUGUGGCUAGACUGCC [A6U A25C A26C] | 0.69
13 | GGCAGUGCUCAACACAGCGUGGCAUAGUGGCUGUGGGUAGAAUACC [A6U A25U C37G C42A G44A] | 0.28
14 | GGCAGUGCUCAACACAGCGUGGCAAUAUGGCUGUGGCUAUACUGCC [A6U A26U G27A G40U] | 0.04
15 | GGCAGUGCUCAACACAGCGUGGCAAUGUGGCUGUGUCUAGACUGCC [A6U A26U G36U] | 0.12
16 | GGCAGUGCUCAACACAGCGUGGCAAAGUGGCUGUGGCUGGACUUGC [A6U A39G G44U C45G] | 0.08
17 | GGCAGUGAUCAACGCAGCGUGGCAAAGUGUCUGUGGCUAGACUGCC [A6U C8A A14G G30U] | 0.02
18 | GGCAGUGAUCAACACAGCGUGGCAAUGUGGCUGUGGCUAGACUGCC [A6U C8A A26U] | 0.26
19 | GGCAGUGAUCAAAACAGCGUGGCAAAGUGGCUGUGGCUAUACUGCU [A6U C8A C13A G40U C46U] | 0.12

Row | Variant | self-cleavage
20 | GGCAGUGAUCAACACAGCGUUGCAAAGUGGCUGUGGCUAGACUGCC [A6U C8A G21U] | 0.25
21 | GGCAGUGGUCAACACAGCGUGGCAAUGUGGCUGUGGCUAGACUUCU [A6U C8G A26U G44U C46U] | 0.06
22 | GGCAGUGGUCAACACAGCGUGGCAAAGUGGCUGUGGCUUGACUUCC [A6U C8G A39U G44U] | 0.01
23 | GGCAGUGGUCAAUACAGCGUGGCAAAGUGGCUGUGGCUAGACUGCC [A6U C8G C13U] | 0.17
24 | GGCAGUGGUCAACAUAGCGUGGCAAAGUGGCUGUGGCAAGACUGCC [A6U C8G C15U U38A] | 0.08
25 | GGCAGUGGUCAACACACCGUGACGAGGUGGCUAUGGCUAGACUGCA [A6U C8G G17C G22A A24G A26G G33A C46A] | 0.02
26 | GGCAGUGGUCAACACAGCAUGGCAAAGUGGCUGUGGCUAGACUGUC [A6U C8G G19A C45U] | 0.78
27 | GGCAGUGGUCAACACAGCGAGGCAACGUGGCUGUGGCUAGACUGCC [A6U C8G U20A A26C] | 0.03
28 | GGCAGUGUUUAACACAGCGUGGCAAAGUGGCUGUGGCCAGACUGCC [A6U C8U C10U U38C] | 0.05
29 | GGCAGUGUUCAACACAGCUAGGCAAAGUGGCUGUGGCUAGACUGCC [A6U C8U G19U U20A] | 0.12
30 | GGCAGUGUUCAACACAGCGUGGCAAAGUUGCUGUGGCUAGACUGCC [A6U C8U G29U] | 0.27
31 | GGCAGUGUUCAACACAGCGUGGCAAAGAGGCUGUGGCUUGACAGCC [A6U C8U U28A A39U U43A] | 0.11
32 | GGCAGUGUUCAACACAGCGUGGCAAAGAGGCUGUAGCUAUAAUGGU [A6U C8U U28A G35A G40U C42A C45G C46U] | 0.11
33 | GGCAGUGCUAAACACAGGGUGGCAAAGUGGCUGAGGCUAGACUGCC [A6U C10A C18G U34A] | 0.02
34 | GGCAGUGCUAAACACAACGUGGCAUAGUGGCUGUGGCUAGACUGCC [A6U C10A G17A A25U] | 0.02
35 | GGCAGUGCUAAACACAGCUUGGCAAAGUGGUUGUGGCUAGACUGCC [A6U C10A G19U C31U] | 0.04
36 | GGCAGUGCUAAACACAGCGUUGCUAAGUGGCUGUGGCUAGACUGCC [A6U C10A G21U A24U] | 0.04
37 | GGCAGUGCUAAACACAGCGUGGCAAAGUGGCUUUGGCAAGACUGCC [A6U C10A G33U U38A] | 0.02
38 | GGCAGUGCUUAACACAGCGUGGCACAUUAGCUGUGGGUAGACUUCC [A6U C10U A25C G27U G29A C37G G44U] | 0.01

Row | Variant | self-cleavage
39 | GGCAGUGCUUAACACAGAGUGGCAAAGUGGCUGUGGCUAGACUUCC [A6U C10U C18A G44U] | 0.07
40 | GGCAGUGCUUAACACAGCUUGUGAAAGUGGCUGAGGCUAGACUGCC [A6U C10U G19U G22U C23G U34A] | 0.07
41 | GGCAGUGCUUAACACAGCUUGGCAAAGUGGCUUUGGCUAGACUGCC [A6U C10U G19U G33U] | 0.05
42 | GGCAGUGCUUAACACAGCGUGGCAAAGUGGCGGUGGCUAGACUGCC [A6U C10U U32G] | 0.12
43 | GGCAGUGCUCAAAACAGCGUGGAAAAGUGGCUGUGGCGAGACUGCA [A6U C13A C23A U38G C46A] | 0.02
44 | GGCAGUGCUCAAAACAGCGUGGCAAAGUGGCUGUGGCUAGAUUGCC [A6U C13A C42U] | 0.1
45 | GGCAGUGCUCAAAACAGCAUGGCAAAGUGGCUGUUACUAGACUGCC [A6U C13A G19A G35U G36A] | 0.4
46 | GGCAGUGCUCAAAACAGCGUGGCAAAUUGGCUGUGGCUAGCCUGCC [A6U C13A G27U A41C] | 0.02
47 | GGCAGUGCUCAAGACAGCGUGGCAAAGUGGCUGUGGAUAGACUGCC [A6U C13G C37A] | 0.37
48 | GGCAGUGCUCAAGACAGCGUGACAAACUGGCUGUGGCUAGACUGCC [A6U C13G G22A G27C] | 0.06
49 | GGCAGUGCUCAAUAGAGCGUGGCAAAGUGGCUGUGGCUAGACUGCC [A6U C13U C15G] | 0.02
50 | GGCAGUGCUCAAUACAGUGUGGCAAAGUGUCUGUGGCUAGACUGCC [A6U C13U C18U G30U] | 0.06
51 | GGCAGUGCUCAACAAAGCGUGGCAAAUUGGCUGUGUCUAGAGUGCC [A6U C15A G27U G36U C42G] | 0.04
52 | GGCAGUGCUCAACAGUGCGUGGCAAAGUGCCUGUGGCUAGAUUGCG [A6U C15G A16U G30C C42U C46G] | 0.92
53 | GGCAGUGCUCAACAGAGCGUGGCAAAGUGGCUAUAGCUAGACUGCC [A6U C15G G33A G35A] | 0.15
54 | GGCAGUGCUCAACAUAGCGUGGCUAAGUGUCUGUGGCUAGACUGCC [A6U C15U A24U G30U] | 0.14
55 | GGCAGUGCUCAACAUAGCGUGGCAGAGUGUCUGUGGCUAGACUGCC [A6U C15U A25G G30U] | 0.06
56 | GGCAGUGCUCAACAUAGCGUGGUUAAGUGGCUGUAGCUAGACUGCC [A6U C15U C23U A24U G35A] | 0.02
